Several values for one entry are separate records, joined by “and”; a condition that tells them apart may be missing. Equal entries are not always repeated. In all, about 16,000 compounds went through this assay and about 40 (0.2%) were called active. Roughly 1% stayed inconclusive and do not appear here. The call rests on the fitted dose curve; in most records, active means well fitted activation curve with a large enough effect; inconclusive means small, poorly fitted or top-dose-only effect, or another doubt; inactive means no such curve, though single readings can be large or run the other way. Some of the results follow.
On the % scale 0 is the no-effect control and ±100 the full control effect.

For this assay, the target named is Rap guanine nucleotide exchange factor 4 (Homo sapiens) (UniProt Q8WZA2). In words: Validation qHTS for agonist of cAMP-regulated guanine nucleotide exchange factor 4 (EPAC2).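 Further: exchange makes BODIPY-GDP fluorescence drop when released from Rap1B; series mostly up to about 150 µM.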 The conditions noted are these: EPAC2 Rap1B BODIPY-GDP exchange, fluorescence; activation: hits give high values. The method in brief: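 Signal normalized against 6.5 mM cAMP as agonist control. Mix of EPAC2 (100 nM), RAP1B-BODIPY-GDP (250 nM) and GDP (50 uM) was read kinetically at 480/540 nm, every 5 min over 30 min, after 5 min room-temperature incubation with compound.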
Chain of UniProt Q8WZA2 (Q8WZA2 whole entry, looked up): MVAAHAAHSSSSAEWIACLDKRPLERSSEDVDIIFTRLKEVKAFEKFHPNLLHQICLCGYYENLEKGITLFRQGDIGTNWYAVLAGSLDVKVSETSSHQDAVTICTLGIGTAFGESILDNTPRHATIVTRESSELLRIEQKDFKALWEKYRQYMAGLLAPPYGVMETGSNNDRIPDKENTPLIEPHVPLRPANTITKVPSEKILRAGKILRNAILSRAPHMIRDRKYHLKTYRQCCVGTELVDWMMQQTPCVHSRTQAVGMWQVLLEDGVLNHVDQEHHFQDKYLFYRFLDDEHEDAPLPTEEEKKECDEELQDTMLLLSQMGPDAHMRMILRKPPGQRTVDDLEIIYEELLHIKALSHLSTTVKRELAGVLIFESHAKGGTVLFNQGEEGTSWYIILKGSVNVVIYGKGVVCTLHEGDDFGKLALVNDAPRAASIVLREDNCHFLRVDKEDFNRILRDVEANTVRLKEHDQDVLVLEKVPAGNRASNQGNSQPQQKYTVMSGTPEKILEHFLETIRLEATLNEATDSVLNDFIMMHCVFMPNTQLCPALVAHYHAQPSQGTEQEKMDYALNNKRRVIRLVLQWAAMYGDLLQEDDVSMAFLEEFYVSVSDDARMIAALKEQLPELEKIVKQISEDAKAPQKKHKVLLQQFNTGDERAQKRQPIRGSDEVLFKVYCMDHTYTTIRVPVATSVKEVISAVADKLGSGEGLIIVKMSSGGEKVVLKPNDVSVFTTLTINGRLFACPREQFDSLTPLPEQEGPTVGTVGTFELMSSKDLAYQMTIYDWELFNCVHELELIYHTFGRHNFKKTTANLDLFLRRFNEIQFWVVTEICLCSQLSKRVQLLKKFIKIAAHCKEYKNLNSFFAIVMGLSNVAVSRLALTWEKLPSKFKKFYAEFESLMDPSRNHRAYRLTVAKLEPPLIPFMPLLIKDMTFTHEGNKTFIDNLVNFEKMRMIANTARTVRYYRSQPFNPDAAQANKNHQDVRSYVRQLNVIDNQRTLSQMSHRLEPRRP
Background: qHTS replaces the single test concentration by a dilution series.
Turning to `CCNc1ncc2nc(CCc3ccccc3)c(=O)n(Cc3cccc(OC)c3)c2n1`, the activation is inactive: -0.96%.

Turning to `COc1cc(C)c(CN2C[C@H](Sc3nc4ccccc4[nH]3)C[C@H]2C(=O)N(C)C)cc1C`, the activation was inactive: -25%.

For the molecule `COCC(=O)N1CCC2(CC1)CN(Cc1cc(C(F)(F)F)cc(C(F)(F)F)c1)C2`, the activation was inactive: -8.19%.

In the case of `O=C1CCN(Cc2ccccc2)CCN1CCSc1ccccc1`, the activation is inactive: -15%.

On to `CCC1COCCS(=O)(=O)N1Cc1ccc(Cl)cc1` (configuration not stated), for which the activation is inactive: -27.3%.

Consider `COc1cc2nc(N3CCN(C(=O)C4CCCO4)CC3)nc(N)c2cc1OC` (configuration not stated), for which the activation is inactive: -11.7% and inactive: -31.1%.

In the case of `COc1cccc(-c2ccc3ncnc(Nc4ccccc4)c3c2)c1`, the activation was inactive: -7.85%.

Consider `OC[C@@H]1O[C@@H](n2cnc3c(NC4CCCC4)ncnc32)[C@H](O)[C@H]1O`, for which the activation is inactive: 2.34%.

As to `COc1ccc(SC[C@H](C)CN2CC[C@H](C)CCC2=O)cc1`, the activation is inactive: -21.2%.

With `C[C@H]1C[C@H]2[C@@H]3CCC4=CC(=O)C=C[C@]4(C)[C@@]3(Cl)[C@@H](O)C[C@]2(C)[C@@]1(O)C(=O)CO`, the activation was inactive: 21.5%.

For the molecule `CCCCCC(N)=O`, the activation is inactive: 5.33%.

As for `CCCCCCCCN1[C@@H](CC(=O)O)c2cc(F)ccc2S1(=O)=O`, the activation was inactive: -2.18%.

For `CN1CCC(CN2c3ccccc3Sc3ccccc32)C1` (configuration not stated), the activation was inactive: -8.26%.

As for `Clc1ccccc1-c1cncnc1NCCN1CCOCC1`, the activation is inactive: -1.3%.

Consider `O=C(/C=C\c1ccc(O)c(O)c1)O[C@@H](Cc1ccc(O)c(O)c1)C(=O)O`, for which the activation was inactive: 0.738%.

On to `c1nc(NC2CCNCC2)c2cc(-c3ccoc3)ccc2n1`, for which the activation was inactive: -3.52%.

Take `Cc1cc(Cl)ccc1OCC(=O)N1CCOc2ccc(CN3C[C@@H](C)O[C@@H](C)C3)cc2C1`: the activation is inactive: 1.02%.

For `COc1cc(=O)n2c(c1C(=O)N1CCc3ccccc3C1)CCN(Cc1ccc(CO)o1)CC2`, the activation is inactive: 8.51%.

In the case of `COCC(=O)N1CCC[C@@]2(CCN(C(=O)Nc3ccc(OC)cc3)C2)C1`, the activation was inactive: -17.6%.

As to `Cc1nc(N=Nc2ccc(C(=O)O)cc2)c(COP(=O)(O)O)c(C=O)c1O`, the activation was inactive: -19.7%.

Take `CC1CCC(NC(=O)N(CCCl)N=O)CC1` (configuration not stated): the activation is inactive: -23%.

Consider `CCNC(=O)c1cc(NC(=O)COC)cc2nc(-c3ccncc3)n(C)c12`, for which the activation was inactive: 5.24%.

Turning to `Cn1cc(-c2nc3cnc(Oc4cccc(Cl)c4)nc3n(CCC#N)c2=O)c2ccccc21`, the activation was inactive: 5.52%.

For the molecule `Nc1cccc(/C=C/c2ccnc3ccccc23)c1`, the activation is inactive: -2.14%.

As to `COc1ccc2c(c1)OC[C@H]1c3cc4c(cc3O[C@@H]21)OCO4`, the activation was inactive: -8.64%.

As to `Oc1ccccc1C=NCc1ccccc1`, the activation was inactive: 0.802%.

Take `CC(C)CN1CC2(CCN(C(=O)c3cccc(F)c3)CC2)C1`: the activation was inactive: -12.2%.

In the case of `COc1ccccc1CNc1nc(-c2ccc(C(=O)N(C)C)cc2)nc2ccccc12`, the activation was inactive: -6.06%.

In the case of `CC(=O)NC(C(=O)O)C(C)(C)SN=O` (configuration not stated), the activation is inactive: -0.864%.

As to `Nc1ccc(S(=O)(=O)Nc2ccc(Cl)nn2)cc1`, the activation is inactive: -17.3% and inactive: -3.29% and inactive: 4.11%.

In the case of `COc1ccc(Oc2ncc3nc(C)c(=O)n(C[C@H]4CCCO4)c3n2)cc1`, the activation was inactive: -5.06%.

Regarding `CCCc1cc(OC)c2c(c1)OCO2`, the activation is inactive: -10.5%.

Consider `COC(=O)C1CCN(Cc2ccc3c(c2)CN(C(=O)C2CCCN(c4ccccn4)C2)CCO3)CC1` (configuration not stated), for which the activation is inactive: -17.4%.

Take `Clc1ccccc1-c1nc(Nc2ccncc2)c2ccccc2n1`: the activation was inactive: -31.7%.

As to `N#Cc1cccc(-c2nc(N3CCNCC3)c3ccccc3n2)c1`, the activation is inactive: -4.85%.

For the molecule `COc1ccc2[nH]cc(CCNc3cc(-c4ccccc4C(F)(F)F)ncn3)c2c1`, the activation is inactive: 16%.

Turning to `OC[C@H]1O[C@@H](n2cnc3c(N[C@H]4C[C@H]5CC[C@@H]4C5)ncnc32)[C@H](O)[C@@H]1O`, the activation is inactive: 1.6%.

For the molecule `Cc1c(C(=O)NCC2Cc3cccc(-c4cncnc4)c3O2)c(-c2ccccc2)nn1-c1ccccc1` (configuration not stated), the activation is inactive: -8.2%.

Regarding `O=C(c1cnccn1)N1CCC[C@@]2(CCN(c3ccccn3)C2)C1`, the activation was inactive: -0.181%.

Turning to `O=C([C@@H]1CC=C[C@@H]2CCN(C3CCCCC3)C(=O)[C@@H]21)N1CCN(c2ccccc2)CC1`, the activation is inactive: -18%.

`CC(=O)N[C@@H](CSC/C=C(\C)CCC=C(C)C)C(=O)O`: the activation is inactive: -15.3% and inactive: 3.11%.

In the case of `COc1cccc(C(=O)NCc2nc(-c3cccc(NC(=O)c4ccoc4C)c3)oc2C)c1OC`, the activation is inactive: -1.47%.

With `O=C(NCC1(N2CCOCC2)CCCCCC1)c1cnn(-c2nccc(-c3ccco3)n2)c1C1CC1`, the activation is inactive: -3.02%.

As to `COCCn1c(=O)c(-c2cn(C)c3ccccc23)nc2cnc(Oc3ccccc3)nc21`, the activation is inactive: -8.01%.

Consider `COC(=O)c1cc(CNC(=O)c2cccc(F)c2)cc(NC(=O)c2ccccc2OC)c1`, for which the activation was inactive: 15%.

In the case of `Cn1cccc1C(=O)N1CCC2(CCCN(Cc3ccc(C#N)cc3)C2)CC1`, the activation was inactive: -14.5%.

For `O=C1NC(=O)C(Cc2ccccc2)(C2CCN(Cc3cccn3-c3cccnc3)CC2)N1` (configuration not stated), the activation was inactive: 2.94%.

Regarding `O=P(O)(O)OCC(O)CO` (configuration not stated), the activation was inactive: 7.31%.

For `NCC1CCCCC1CC(=O)O` (configuration not stated), the activation is inactive: 6.84%.

Consider `COC(=O)CCC[N+](C)(C)C`, for which the activation was inactive: -12.2%.

For the molecule `CC(=O)NCCNc1nc(-c2c(C)noc2C)nc2ccccc12`, the activation is inactive: -0.0513%.

`O=C(O)Cc1ccc(-c2ccccc2)cc1`: the activation was inactive: 15.3%.

Regarding `Clc1ccccc1-c1ccc2ncnc(NC3CCNCC3)c2c1`, the activation is inactive: -3.32%.

`C[C@@](N)(C(=O)O)[C@@H]1C[C@@H]1C(=O)O`: the activation is inactive: -5.81%.

As to `C[C@@H]1C[C@H]2[C@@H]3C[C@H](F)C4=CC(=O)C=C[C@]4(C)[C@@]3(F)[C@@H](O)C[C@]2(C)[C@@]1(O)C(=O)CO`, the activation is inactive: 1.73%.

`CC(=O)N1CCC2(CC1)CCN(C(=O)Nc1cccc(F)c1)CC2`: the activation was inactive: -7.32%.

Regarding `CS(=O)(=O)N1CCC2(CCN(C(=O)Nc3cccc(C#N)c3)CC2)CC1`, the activation was inactive: -0.804%.

The values are drawn from PubChem BioAssay AID1645887 (National Center for Advancing Translational Sciences (NCATS), 2021).
